In PubChem BioAssay AID1508623 (National Center for Advancing Translational Sciences (NCATS), 2021):
Several values for one entry are separate records, joined by “and”; a condition that tells them apart may be missing. Equal values may be shown once. Among all 48,000 compounds or so, about 450 (0.94%) were called active. This list was built around the results that the source calls inconclusive (neither active nor inactive); the mix of calls is not that of the screen. Calls follow the shape of the dose curve; as a rule, active = well fitted inhibition curve with a large enough effect; inconclusive = small, poorly fitted or top-dose-only effect; inactive = no such curve, though single readings can be large or run the other way. Where the call is inconclusive, the potency comes from a doubtful curve fit.

experiment: Primary qHTS for Identification of Small Molecule Inhibitors of Huntingtin Promoter Activity; settings: HEK293 HTT promoter firefly luciferase reporter (activity 0% = vehicle and -100% = no light), 24 h; series mostly up to 57.5 µM; also: nearly all actives have a fitted effect of over 50% in size
Outline: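 Firefly luciferase readout (Dual-Glo, 10 min RT) after 24 h, 37 °C compound exposure (final up to 57.5 uM) of HEK293 reporter cells cultured 24 h beforehand; PTC124 at 50 uM final as control inhibitor; activity scaled vehicle 0%, zero RLU -100%.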
Potency is read from the fitted curve at half-maximal effect; tags tell the direction and shape of the fitted curve.

Compound	Potency
COC(=O)c1c(NC(=O)CS(=O)(=O)c2ccc(C)cc2)sc2c1CCCCC2	inconclusive: 28.2 µM [inhibitor, single point]
CC(C)c1ccc(NC(=O)CSC2=Nc3ccccc3C3=NC(CCC(=O)NCc4cccs4)C(=O)N23)cc1 (configuration not stated)	inconclusive: 39.8 µM [inhibitor, single point]
Cc1cc(C)c(-c2n[nH]c3c2C(c2ccccc2F)N(CCO)C3=O)c(O)c1 (configuration not stated)	inconclusive: 39.8 µM [inhibitor, single point]
COc1ccc(Br)cc1CNCc1c(C(=O)O)c(C)n(Cc2ccccc2C)c1C	inconclusive: 28.2 µM [inhibitor, partial curve]
Cc1nc2cccnc2n1-c1cccc(C(=O)NCc2cccc(Cl)c2)c1	inconclusive: 14.1 µM [inhibitor, partial curve, poor fit]
COc1ccc(-c2nc3scc(CCNS(=O)(=O)c4cccs4)n3n2)cc1	inconclusive: 39.8 µM [inhibitor, single point]
CCOC(=O)Cc1ccc(NC(=O)Nc2nnc(N3CCCCC3C)s2)cc1 (configuration not stated)	inconclusive: 15.8 µM [inhibitor, partial curve, poor fit]
O=C(Nc1ccc2c(c1)CCCN2C(=O)c1cccs1)c1ccccc1C(F)(F)F	inconclusive: 5.62 µM [inhibitor, full curve]
CCC(=O)N1CCc2cc(Br)cc(S(=O)(=O)NCCc3ccc(C)cc3)c21	inconclusive: 39.8 µM [inhibitor, single point]
CCOC(=O)c1ccc(NC(=O)Nc2cc3c(cc2N2CCCCC2)n(CC)c(=O)n3CC)cc1	inconclusive: 35.5 µM [inhibitor, single point]
Cc1cc(C)c(S(=O)(=O)NCC(c2ccco2)S(=O)(=O)c2ccccc2)c(C)c1 (configuration not stated)	inactive
O=S(=O)(Nc1ccc(OC(F)(F)F)cc1)c1ccc(N2CCCCS2(=O)=O)cc1	inconclusive: 10 µM [inhibitor, partial curve]
CCc1ccc2c(c1)c(=O)c(S(=O)(=O)c1ccc(F)cc1)cn2CC(=O)Nc1ccccc1OC	inconclusive: 25.1 µM [inhibitor, single point]
COc1ccc(CCNC(=O)c2ccc(CS(=O)(=O)c3ccc(C)cc3)o2)cc1OC	inconclusive: 12.6 µM [inhibitor, partial curve, poor fit]
COc1cc(CN2CCc3nc(Nc4ccc5c(c4)OCCO5)ncc3C2)cc(OC)c1OC	inactive
CCOC(=O)c1cc2c(=O)n3ccccc3nc2n(Cc2ccco2)c1=NC(=O)c1cc(C)cc(C)c1	inconclusive: 3.55 µM [inhibitor, full curve]
COc1ccc(CCNc2nc3c(c(=O)n(C)c(=O)n3C)n2Cc2ccc(F)cc2)cc1OC	inconclusive: 2.82 µM [inhibitor, full curve]
COc1ccc2[nH]cc(CCNC(=O)Nc3ccccc3C)c2c1	inactive
Cc1cc(C)c(NC(=O)c2sc3nc(C)cc(C)c3c2N)c(C)c1	inactive

Compound	Potency
O=C1C2=C(Nc3ccccc3SC2c2c(F)cccc2Cl)c2ccccc21 (configuration not stated)	inactive
O=C(NCCc1ccc(F)cc1)C(=O)NCC(c1cccs1)S(=O)(=O)c1cccs1 (configuration not stated)	inconclusive: 39.8 µM [inhibitor, single point]
COC(=O)c1ccc(NS(=O)(=O)c2ccc3[nH]c4c(c3c2)CCCCC4)cc1	inconclusive: 28.2 µM [inhibitor, single point]
Cc1cccc(-n2cc(-c3ccccc3)nc2SCC(=O)Nc2ccccc2Cl)c1	inconclusive: 12.6 µM [inhibitor, partial curve, poor fit]
COc1ccc(-n2c(-c3ccc(Cl)cc3)cc3c2CC(C)(C)CC3=O)c(OC)c1	inconclusive: 15.8 µM [inhibitor, partial curve, poor fit]
CC1=C(C(=O)Nc2ccc(C)cc2C)C(c2ccc(C(C)C)cc2)n2nc(C(F)(F)F)nc2N1 (configuration not stated)	inconclusive: 25.1 µM [inhibitor, partial curve, poor fit]
Cc1cccc(C)c1NC(=O)c1ccc2nc(CCc3ccccc3)oc2c1	inconclusive: 20 µM [inhibitor, partial curve, poor fit]
CC(C)c1ccc(NC(=O)CCS(=O)(=O)c2ccc(Br)s2)cc1	inconclusive: 25.1 µM [inhibitor, partial curve, poor fit]
O=C(CSc1nc2ccccc2n1Cc1cccc(Cl)c1)N1CCN(c2ccc(F)cc2)CC1	inconclusive: 35.5 µM [inhibitor, single point]
COc1ccc(OC)c(CNC(=O)Cn2nc(C)c3c(C)n(-c4ccccc4)nc3c2=O)c1	inconclusive: 12.6 µM [inhibitor, partial curve]
CC1=Nc2cc(C(=O)NC3CCCC3)ccc2Sc2ccc(Br)cc21	inconclusive: 10 µM [inhibitor, partial curve]
Cc1cc2c(cc1S(=O)(=O)N(C)CC(=O)Nc1cccc(C#N)c1)OCC(=O)N2	inconclusive: 1.78 µM [inhibitor, partial curve, poor fit]
CCN(CC)c1ccc(NC(=O)CN2CCN(CC(=O)Nc3ccccc3OC)CC2)cc1	inconclusive: 39.8 µM [inhibitor, single point]
CCOCCCNC(=O)c1c[nH]c2ccc(S(=O)(=O)Nc3cccc(Cl)c3C)cc2c1=O	inactive
Cc1ccc(CCNc2ncnc3onc(C)c23)cc1	inconclusive: 1.58 µM [inhibitor, full curve, poor fit]
Cc1ccc(C)c(NC(=O)C(Cc2ccccc2)N2Cc3ccccc3C2=O)c1 (configuration not stated)	inconclusive: 39.8 µM [inhibitor, single point]
COc1ccc(NC(=O)N2CCc3c([nH]c4ccc(OC)cc34)C2c2ccc(OC)cc2)cc1 (configuration not stated)	inconclusive: 20 µM [inhibitor, partial curve]
COc1cc(Nc2c(C#N)cnc3cc(OCCCN4CCN(C)CC4)c(OC)cc23)c(Cl)cc1Cl	inconclusive: 8.91 µM [inhibitor, partial curve, poor fit] and inconclusive: 2.17 µM [inhibitor, full curve, poor fit]
CCCCc1oc2ccc(NS(C)(=O)=O)cc2c1C(=O)c1ccc(OCCCN(CCCC)CCCC)cc1	inconclusive: 34.3 µM [inhibitor, single point] and inconclusive: 39.8 µM [inhibitor, single point]

Compound	Potency
Cc1ccc(S(=O)(=O)N2CCCc3cc(NC(=O)c4ccccc4Cl)ccc32)cc1	inconclusive: 28.2 µM [inhibitor, single point]
Cc1ccc(CNCc2c(C(=O)O)c(C)n(Cc3ccc(C)cc3)c2C)cc1	inactive
CCn1c(=O)cc(OCC(=O)Nc2cc(OC)c(OC)c(OC)c2)c2ccccc21	inactive
O=C(Cn1c(=O)n(-c2ccccc2)c(=O)c2c3c(sc21)CCCC3)Nc1cccc(F)c1	inactive
CN(C)c1ccc(CNC(=O)c2ccc(NC(=O)c3nsc4ccccc34)cc2)cc1	inconclusive: 20 µM [inhibitor, partial curve, poor fit]
Cc1ccc(Nc2cc(-c3cccc(N4C(=O)c5ccccc5C4=O)c3)ncn2)cc1NS(C)(=O)=O	inconclusive: 30.6 µM [inhibitor, single point]
CCC1(c2ccccc2)C(=O)NCNC1=O	inconclusive: 3.85 µM [inhibitor, full curve]
COc1cc(NC(=O)c2cc(C3CC3)nc3c2c(C)nn3-c2ccc(C)cc2)cc(OC)c1	inconclusive: 28.2 µM [inhibitor, partial curve, poor fit]
CCOC(=O)CC(NC(=O)c1cc2c(=O)n3cccc(C)c3nc2s1)c1ccc(OCC(C)C)c(OC)c1 (configuration not stated)	inconclusive: 0.501 µM [inhibitor, full curve, poor fit]
CCOC(=O)C1=C(CN(CC)Cc2ccccc2)NC(=O)NC1c1ccc(OC)cc1 (configuration not stated)	inconclusive: 39.8 µM [inhibitor, single point]
N#Cc1c(-n2ncnc2-c2cccc(Cl)c2)sc2c1CCCCC2	inconclusive: 22.4 µM [inhibitor, partial curve, poor fit]
O=C1CN(C(=O)c2cccc(Br)c2)C(c2ccccc2)c2cc(Cl)ccc2N1 (configuration not stated)	inconclusive: 39.8 µM [inhibitor, single point]
COc1cccc(C(=O)Nc2nc(-c3nnn(-c4cc(C)ccc4C)c3C)ns2)c1	inconclusive: 6.31 µM [inhibitor, full curve, poor fit]
CCS(=O)(=O)NCCc1sc2nc(-c3ccc(OC)cc3)nn2c1C	inconclusive: 31.6 µM [inhibitor, partial curve, poor fit]
O=C(CNS(=O)(=O)c1ccc(Br)s1)N1CCN(c2ccc(F)cc2)CC1	inconclusive: 35.5 µM [inhibitor, partial curve, poor fit]
CCOC(=O)c1cnc(NCc2ccc(OC)cc2OC)c2ccccc12	inconclusive: 35.5 µM [inhibitor, partial curve, poor fit]
CCOCCCNC(=O)c1ccc(-c2nc(CS(=O)(=O)c3ccccc3)c(C)o2)cc1	inconclusive: 31.6 µM [inhibitor, partial curve, poor fit]
COc1ccc(-c2nc3sc(CCNC(=O)C(C)(C)C)c(C)n3n2)cc1	inconclusive: 17.8 µM [inhibitor, partial curve]
CC(C)Cc1nn2cc(-c3cccc(Br)c3)nc2s1	inconclusive: 12.6 µM [inhibitor, partial curve, poor fit]
